Source: ChEMBL document CHEMBL4888484, “Replenishing the malaria drug discovery pipeline: Screening and hit evaluation of the MMV Hit Generation Library 1 (HGL1) against asexual blood stage Plasmodium falciparum ,using a nano luciferase reporter read-out” (2022)
In all, about 150,000 compounds went through this assay and about 540 (0.36%) showed an effect of 50% or more. Some of the results follow.

system: Plasmodium falciparum; test: Primary screen in NF54 nanoGlo assay, in single point, at 2uM, 72h; a lower Z score goes with more inhibition; type: functional, Erythrocyte; conditions: timepoint 72 hour

SMILES	% Inhibition [%]	Z score
Cc1cc(NCCCN2CCOCC2)nc(N)n1	-9	1.73
Cc1oc(-c2ccccc2)nc1CNC1(C(=O)O)CCCC1	-11	1.31
CCOc1ncccc1CNC(=O)N1CCOC[C@@H]1CC(C)C	-3	0.66
CCCc1[nH]nc(-c2ccc(C(F)(F)F)cc2)c1NC(=O)C1CCC1	-6	1.04
O=C(c1cccc(S(=O)(=O)NCc2cc[nH]n2)c1)N1C[C@H]2CCC[C@@H]1C2	2	-0.29
O=S1(=O)[C@H](c2ccccc2)CCN1Cc1ccc(C(F)(F)F)cn1	-6	0.99
CC[C@H](Oc1ccccc1F)C(=O)NCC1(N2CCN(C)CC2)CCCCC1	-2	0.27
CN(C)c1cc(F)cc(N2C(=O)CNC2=O)c1	1	-0.08
CN1C(=O)NCC12CCN(C(=O)Nc1cccc3ccsc13)CC2	-14	1.91
CCC[C@H]1CN(C(=O)c2cc(=O)[nH]c3cc(F)ccc23)C[C@@H]1N	-9	1.79
O[C@@H](CNC1CC(c2ccc(Cl)cc2)C1)c1ccco1 (stereo partly drawn)	10	-1.05
CCCc1noc(CN2C[C@@H](C(N)=O)c3ccccc32)n1	-15	1.3
CCN1C[C@H](CN(C)C(=O)c2cnccn2)Oc2ccccc21	-9	1.37
CC1(C(=O)N2CCC[C@@]3(CCS(=O)(=O)C3)C2)COC1	-25	2.66
CCc1nc(Cn2nc(-c3ccccc3)ccc2=O)no1	-11	1.59
COc1ccc([C@H]2CC(=O)Nc3c2cnn3Cc2ccco2)c(OC)c1	17	-2.17
COc1cccc(Cc2nc(-c3ccc(S(=O)(=O)N4CCOCC4)cc3)no2)c1	-1	0.21
O=C(Nc1cnc(N2CCCCCC2)nc1)c1ccccc1Br	-24	2.14
COC(=O)C1(CNC(=O)c2cc(F)ccc2O)CCOCC1	-4	0.71
CC1(C)Nc2ccccc2-c2nnnn21	-10	1.32
CO[C@@H](CS(=O)(=O)Nc1ccc(C(=O)O)cc1F)C1CCCC1	3	-0.31
CC(C)c1nc(CN2C(=O)N[C@@](C)(c3cnn(C)c3)C2=O)no1	2	-0.3

SMILES	% Inhibition [%]	Z score
O=C(c1ccsc1)N1CCc2n[nH]c(=O)n2CC1	7	-1.32
CC(NS(C)(=O)=O)c1nc(C(C)C2CC2)no1 (stereo not drawn)	2	-0.4
Cc1cc([C@@H]2CCCN2S(=O)(=O)c2cc(F)c(F)cc2F)on1	4	-0.68
O=C(OCCNc1ncccn1)c1nccc2ccccc12	-6	0.65
O=S(=O)(N1CCCCC1)N1CCO[C@H](c2ccc(F)cc2)C1	-3	0.56
CCCc1nc(C(=O)N(CCO)Cc2nccs2)cs1	-4	0.63
O=C1CC(C2CCCCN2C(=O)NCCC2CC3CCC2C3)CN1 (stereo not drawn)	26	-2.98
C[C@@H](CN1CCCCCC1)NCCc1nccs1	-6	1.07
Cc1nn(-c2ccc(C(C)(C)C)cc2)c(C)c1[C@@H]1C=C[C@@H](NC(=O)NCc2ccccc2)C1	30	-3.34
OCc1ccnc(N2CCC[C@@]3(C=Cc4ccccc4O3)C2)n1	-6	0.83
O=C(C#Cc1ccccc1)NCc1ccccc1OCCO	3	-0.45
O=C1CN(C2CCCC2)C(=O)N1Cc1ncc(Cl)cc1Cl	0	-0.07
CC[C@@H](CO)NC(=O)C(=O)Nc1c(C)cccc1C	-8	1.23
CCOc1ccc(-c2ccnc3nc(N4CCOCC4)[nH]c(=O)c23)cc1	-4	0.52
Cc1cccnc1NC(=O)OC(C)(C)C	33	-0.97
CC(C)[C@H](NS(=O)(=O)c1cccnc1)c1nccn1C	-8	0.92
NC(=O)[C@H]1CCCN(Cc2cnc3c(-c4ccccc4)cnn3c2)C1	0	-0.06
Cn1nnc2c1CC(C(=O)NCC1CCCCC1NS(C)(=O)=O)CC2 (stereo not drawn)	-2	0.4
C1CCC(Nc2nc3nonc3nc2N2CCCCC2)CC1	32	-4.14
CCn1ncnc1CNC(=O)c1c(C)coc1C	-5	0.84
Cc1nc(CN(Cc2nccn2C)C2CC2)no1	-6	1.16
Cc1ccc(N[C@@](C)(C(=O)N(C)Cc2nccn2C)c2ccccc2)cc1	1	-0.23
